# In the supplement of paper PMC8728848:
# Some of the results follow.
# B1: Beta-Defensin 3 (Homo sapiens), P81534 (peptide)
# chain: GIINTLQKYYCRVRGGRCAVLSCLPKEEQIGKCSTRGRKCCRRKK
# Tests used:
# Assay in all cases: glycan array binding signal (z-score within array); higher = stronger binding
# Details in all cases: glycan notation: IUPAC condensed, linker removed
# Fuc(a1-2)Gal = molecular target: Fuc(a1-2)Gal
# Outline: (§1)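 Negative Z-scores can be read as non-binding. The Z-score is calculated within each array and then averaged across arrays of one protein sequence at different concentrations or buffers and across linkers. Arrays, 3228 in all, were curated from the Consortium for Functional Glycomics database and kept only where the protein sequence was available.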
# Fuc(a1-2)Gal(b1-3)GalNAc = molecular target: Fuc(a1-2)Gal(b1-3)GalNAc
# Outline: as §1
# [1] = molecular target: Fuc(a1-2)Gal(b1-3)GalNAc(b1-3)Gal
# Outline: as §1
# [2] = molecular target: Fuc(a1-2)Gal(b1-3)GalNAc(b1-3)Gal(a1-4)Gal(b1-4)Glc
# Outline: as §1
# [3] = molecular target: Fuc(a1-2)Gal(b1-3)GalNAc(b1-4)[Neu5Ac(a2-3)]Gal(b1-4)Glc
# Outline: as §1
# Fuc(a1-2)Gal(b1-3)GlcNAc = molecular target: Fuc(a1-2)Gal(b1-3)GlcNAc
# Outline: as §1
# [4] = molecular target: Fuc(a1-2)Gal(b1-3)GlcNAc(b1-2)Man(a1-3)[Fuc(a1-2)Gal(b1-3)GlcNAc(b1-2)Man(a1-6)]Man(b1-4)GlcNAc(b1-4)GlcNAc
# Outline: as §1
# [5] = molecular target: Fuc(a1-2)Gal(b1-3)GlcNAc(b1-3)Gal(b1-4)Glc
# Outline: as §1
# [6] = molecular target: Fuc(a1-2)Gal(b1-3)GlcNAc(b1-3)[Gal(b1-4)[Fuc(a1-3)]GlcNAc(b1-6)]Gal(b1-4)Glc
# Outline: as §1
# [7] = molecular target: Fuc(a1-2)Gal(b1-3)[Fuc(a1-4)]GlcNAc
# Outline: as §1
# [8] = molecular target: Fuc(a1-2)Gal(b1-3)[Fuc(a1-4)]GlcNAc(b1-2)Man(a1-3)[Fuc(a1-2)Gal(b1-3)[Fuc(a1-4)]GlcNAc(b1-2)Man(a1-6)]Man(b1-4)GlcNAc(b1-4)GlcNAc
# Outline: as §1
# Fuc(a1-2)Gal(b1-4)Glc = molecular target: Fuc(a1-2)Gal(b1-4)Glc
# Outline: as §1
# Fuc(a1-2)Gal(b1-4)Glc6S = molecular target: Fuc(a1-2)Gal(b1-4)Glc6S
# Outline: as §1
# Fuc(a1-2)Gal(b1-4)GlcNAc = molecular target: Fuc(a1-2)Gal(b1-4)GlcNAc
# Outline: as §1
# [9] = molecular target: Fuc(a1-2)Gal(b1-4)GlcNAc(b1-2)Man(a1-3)[Fuc(a1-2)Gal(b1-4)GlcNAc(b1-2)Man(a1-6)]Man(b1-4)GlcNAc(b1-4)GlcNAc
# Outline: as §1
# [10] = molecular target: Fuc(a1-2)Gal(b1-4)GlcNAc(b1-3)Gal(b1-4)GlcNAc
# Outline: as §1
# [11] = molecular target: Fuc(a1-2)Gal(b1-4)GlcNAc(b1-3)Gal(b1-4)GlcNAc(b1-3)Gal(b1-4)GlcNAc
# Outline: as §1
# [12] = molecular target: Fuc(a1-2)Gal(b1-4)GlcNAc6S
# Outline: as §1
# [13] = molecular target: Fuc(a1-2)Gal(b1-4)[Fuc(a1-3)]GlcNAc
# Outline: as §1
# [14] = molecular target: Fuc(a1-2)Gal(b1-4)[Fuc(a1-3)]GlcNAc(b1-2)Man(a1-3)[Fuc(a1-2)Gal(b1-4)[Fuc(a1-3)]GlcNAc(b1-2)Man(a1-6)]Man(b1-4)GlcNAc(b1-4)GlcNAc
# Outline: as §1
# [15] = molecular target: Fuc(a1-2)Gal(b1-4)[Fuc(a1-3)]GlcNAc(b1-3)Gal(b1-4)[Fuc(a1-3)]GlcNAc
# Outline: as §1
# [16] = molecular target: Fuc(a1-2)Gal(b1-4)[Fuc(a1-3)]GlcNAc(b1-3)Gal(b1-4)[Fuc(a1-3)]GlcNAc(b1-3)Gal(b1-4)[Fuc(a1-3)]GlcNAc
# Outline: as §1
# Fuc(a1-2)Gal6S(b1-4)Glc = molecular target: Fuc(a1-2)Gal6S(b1-4)Glc
# Outline: as §1
# [17] = molecular target: Fuc(a1-2)Gal6S(b1-4)Glc6S
# Outline: as §1
# [18] = molecular target: Fuc(a1-2)Gal6S(b1-4)GlcNAc
# Outline: as §1
# Fuc(a1-2)[Gal(a1-3)]Gal = molecular target: Fuc(a1-2)[Gal(a1-3)]Gal
# Outline: as §1
# [19] = molecular target: Fuc(a1-2)[Gal(a1-3)]Gal(b1-3)GlcNAc
# Outline: as §1
# [20] = molecular target: Fuc(a1-2)[Gal(a1-3)]Gal(b1-3)GlcNAc(b1-2)Man(a1-3)[Fuc(a1-2)[Gal(a1-3)]Gal(b1-3)GlcNAc(b1-2)Man(a1-6)]Man(b1-4)GlcNAc(b1-4)GlcNAc
# Outline: as §1
# [21] = molecular target: Fuc(a1-2)[Gal(a1-3)]Gal(b1-4)Glc
# Outline: as §1
# [22] = molecular target: Fuc(a1-2)[Gal(a1-3)]Gal(b1-4)GlcNAc
# Outline: as §1
binder,measurement,setting,value
B1,glycan array binding signal (z-score),Fuc(a1-2)Gal,0.026
same,glycan array binding signal (z-score),Fuc(a1-2)Gal(b1-3)GalNAc,-0.217
same,glycan array binding signal (z-score),[1],-0.214
same,glycan array binding signal (z-score),[2],-0.574
same,glycan array binding signal (z-score),[3],-0.543
same,glycan array binding signal (z-score),Fuc(a1-2)Gal(b1-3)GlcNAc,-0.288
same,glycan array binding signal (z-score),[4],-0.721
same,glycan array binding signal (z-score),[5],-0.454
same,glycan array binding signal (z-score),[6],-0.502
same,glycan array binding signal (z-score),[7],-0.254
same,glycan array binding signal (z-score),[8],0.336
same,glycan array binding signal (z-score),Fuc(a1-2)Gal(b1-4)Glc,-0.284
same,glycan array binding signal (z-score),Fuc(a1-2)Gal(b1-4)Glc6S,0.55
same,glycan array binding signal (z-score),Fuc(a1-2)Gal(b1-4)GlcNAc,-0.513
same,glycan array binding signal (z-score),[9],-0.692
same,glycan array binding signal (z-score),[10],-0.522
same,glycan array binding signal (z-score),[11],-0.323
same,glycan array binding signal (z-score),[12],-0.267
same,glycan array binding signal (z-score),[13],-0.259
same,glycan array binding signal (z-score),[14],-0.427
same,glycan array binding signal (z-score),[15],-0.443
same,glycan array binding signal (z-score),[16],-0.483
same,glycan array binding signal (z-score),Fuc(a1-2)Gal6S(b1-4)Glc,0.806
same,glycan array binding signal (z-score),[17],5.67
same,glycan array binding signal (z-score),[18],0.386
same,glycan array binding signal (z-score),Fuc(a1-2)[Gal(a1-3)]Gal,-0.102
same,glycan array binding signal (z-score),[19],-0.401
same,glycan array binding signal (z-score),[20],-0.663
same,glycan array binding signal (z-score),[21],-0.411
same,glycan array binding signal (z-score),[22],-0.436
